Experimental data: PubChem BioAssay AID902 (National Center for Advancing Translational Sciences (NCATS), 2007)
Hit rate of the full screen: of about 130,000 compounds, about 1,900 (1.5%) were called active. This list was built around the results that the source calls inconclusive (neither active nor inactive); the mix of calls is not that of the screen. Calls come from the whole dose curve; as a rule, active = well fitted cell-killing curve with a large enough effect; inconclusive = small, poorly fitted or top-dose-only effect; inactive = no such curve, though single readings can be large or run the other way. Potencies of inconclusive entries are doubtful fits and often do not repeat.

assay: qHTS Screen for Compounds that Selectively Target Cancer Cells with p53 Mutations: Cytotoxicity of p53ts Cells at the Nonpermissive Temperature; conditions: H1299-p53A138V viability at 39C, ATP luminescence, 24 h; activity change, negative = cell killing: at 46.1 µM (top of the series); note: nearly all actives have a fitted effect of over 55% in size
% is set by controls: 0 for no effect and ±100 for the full control effect; potency is the fitted concentration of half-maximal effect; tags give direction and shape of the fitted curve.

| Structure (SMILES) | Potency | activity change, negative = cell killing |
| --- | --- | --- |
| Cc1cc(C)cc(NC(=O)CSc2nc(=O)[nH]c3c2CCC3)c1 | inconclusive: 2.24 µM [cytotoxic, full curve, poor fit] | – |
| CCSc1nnc(NC(=O)c2ccco2)s1 | inactive | – |
| CCCN(CCC)CCCNC(=O)Cn1ncc2c3ccccc3n(Cc3ccccc3F)c2c1=O | inconclusive: 15.8 µM [cytotoxic, single point] | – |
| CC(=O)c1nn(-c2ccc(OC(F)(F)F)cc2)nc1Nc1ccccc1 | inconclusive: 0.398 µM [cytotoxic, partial curve, poor fit] | – |
| COc1ccc2nc(NC(=O)c3cccc(OCc4c(C)noc4C)c3)sc2c1 | inactive | – |
| CC(=O)Nc1cccc(Nc2nc3ccccc3n3c(C)nnc23)c1 | inconclusive: 31.6 µM [cytotoxic, single point] | – |
| Cc1cccc(C(c2sc3nc(-c4ccco4)nn3c2O)N2CCN(c3ccccc3F)CC2)c1 (stereo not given) | inactive | – |
| CCCC[P+](CCCC)(CCCC)Cc1ccc(NC(=O)[C@@H](Cc2ccc3ccccc3c2)NC(=NC2CCCCC2)NC2CCCCC2)cc1 | inconclusive: 31.6 µM [cytotoxic, single point] | – |
| COc1cc2nc(Nc3cccc(C)c3)nc(N)c2cc1OC | inconclusive: 12.6 µM [cytotoxic, single point] | – |
| CCC(C)Sc1nc2c(c(=O)[nH]c(=O)n2C)n1CC(O)COc1ccccc1C (stereo not given) | inactive | – |
| COC(=O)c1sc(-c2ccccc2)cc1NC(=O)Nc1ccc(Cl)cc1 | inconclusive: 25.1 µM [cytotoxic, single point] | – |
| CN(C)c1ccc(-c2nc(-c3cccs3)c(-c3cccs3)[nH]2)cc1 | inconclusive: 0.199 µM [cytotoxic, partial curve, poor fit] | – |
| CCCn1c(SCC(O)c2ccccc2)nc2ccccc21 (stereo not given) | inactive | – |
| O=C(Nc1nnc(-c2ccccc2Cl)o1)c1ccco1 | active: 10 µM | – |
| CCOc1cc(S(=O)(=O)NC2CCCCCC2)ccc1F | inactive | – |
| Cc1cc(OCCn2c(CCNC(=O)C3CCCCC3)nc3ccccc32)ccc1Cl | inconclusive: 12.6 µM [cytotoxic, partial curve] | – |
| COc1cccc(-c2nnc(SCCC(=O)O)n2C)c1 | inconclusive: 2.51 µM [cytotoxic, partial curve] | – |
| COc1ccc(NC(=O)c2sc3nc4c(cc3c2N)CCCCCC4)cc1 | inconclusive: 12.6 µM [cytotoxic, single point] | – |
| CCOc1ccc(CNC(=O)c2ccccc2NC(=O)c2nsc3ccccc23)cc1 | active: 10 µM | – |
| CCOc1ccc(CNC(=O)C2CCN(C(=O)N3CC(CC)Oc4ccccc43)CC2)cc1 (stereo not given) | inconclusive: 31.6 µM [cytotoxic, single point] | – |
| Cc1ccc(OCC(=O)Nc2ccc3nc(SCC(=O)Nc4ccc(C)cc4C)sc3c2)cc1 | inconclusive: 12.6 µM [cytotoxic, single point] | – |
| CC(C)(C)c1ccc(C(=O)NC2(C(F)(F)F)NC(=O)N(CCc3ccccc3)C2=O)cc1 (stereo not given) | inconclusive: 20 µM [cytotoxic, single point] | – |
| CCCN(CCC)CCCNC(=O)C1CCN(c2nc3ccc(CC)cc3s2)CC1 | inconclusive: 10 µM [cytotoxic, partial curve] | – |
| O=C(Nc1ccc2nn(-c3ccccc3)nc2c1)c1ccco1 | inconclusive: 22.4 µM [cytotoxic, partial curve, poor fit] | – |

| Structure (SMILES) | Potency | activity change, negative = cell killing |
| --- | --- | --- |
| CSc1cccc(NC(=O)C2CCCN(C(=O)c3cnn(-c4ccc(F)cc4)c3-n3cccc3)C2)c1 (stereo not given) | inactive | – |
| CCOc1ccc(CCNC(=O)c2cc3c(=O)n(C)c4ccccc4c3n2C)cc1OCC | inconclusive: 31.6 µM [cytotoxic, single point] | – |
| COC(=O)C1C(=O)C2=C(CC1C)NC(C)=C(C(=O)OC1CCCCC1)C2c1ccc(N(C)C)cc1 (stereo not given) | inactive | – |
| Cc1cc2oc(C(=O)N(Cc3ccc(N(C)C)cc3)CC3CCCO3)c(C)c2cc1Cl (stereo not given) | inconclusive: 2.51 µM [cytotoxic, single point] | – |
| CCc1cccc(NC(=O)c2cc3c(s2)-c2ccccc2OC3)c1 | inconclusive: 12.6 µM [cytotoxic, single point] | – |
| CCCCc1ccc(C2C(C#N)=C(N)SC(N)=C2C#N)s1 | inactive | – |
| COc1ccccc1N1CCN(Cc2cc(Br)c(O)c3ncccc23)CC1 | active: 15.8 µM | – |
| CCN1C(=O)c2ccc(C(=O)NCc3ccc4c(c3)OCO4)cc2C1=O | inconclusive: 25.1 µM [cytotoxic, single point] | – |
| COc1ccc(OCC(=O)Nc2ccc(Cl)c(-c3nc4ncccc4o3)c2)cc1 | inactive | – |
| O=C(NCc1nc2ccccc2n1Cc1ccccc1Cl)c1ccccc1 | inconclusive: 15.8 µM [cytotoxic, partial curve, poor fit] | – |
| Cc1ccc(NC(=O)NC(C)c2c(-n3cccc3)sc(C)c2C)cc1F (stereo not given) | inconclusive: 10 µM [cytotoxic, partial curve, poor fit] | – |
| O=c1c(-c2ccccc2)nc2cnc(N3CCNCC3)nc2n1Cc1ccc(F)cc1 | inconclusive: 15.8 µM [cytotoxic, single point] | – |
| CCOc1ccccc1C(=O)Nc1cc2c(cc1N1CCCCC1)n(C)c(=O)n2C | inconclusive: 31.6 µM [cytotoxic, single point] | – |
| Cc1cc(C)cc(NS(=O)(=O)c2ccc3[nH]cc(C(=O)NCc4ccco4)c(=O)c3c2)c1 | active: 2 µM | – |
| Cc1ccc(OCC(=O)Nc2ccccc2C(=O)OCc2cc(=O)n3c(C)csc3n2)cc1 | inactive | – |
| CCOc1ccc(-n2c(=O)c3sc4ccccc4c3n(Cc3ccc(F)cc3)c2=O)cc1 | inconclusive: 10 µM [cytotoxic, partial curve] | – |
| Cc1cccc(NC(=O)CSc2nnc(-c3cc(C)n(-c4ccccc4)c3C)o2)c1C | inconclusive: 25.1 µM [cytotoxic, single point] | – |
| Cc1nc(N2CCCC2)ncc1C(=O)NCc1ccccc1Cl | inactive | – |
| Cc1[nH]c2ccccc2c1C1(O)C(=O)N(Cc2ccc(Cl)cc2)c2ccccc21 (stereo not given) | inconclusive: 31.6 µM [cytotoxic, single point] | – |
| COc1ccc(CC(=O)Nc2sc3c(c2C(=O)Nc2ccc(C)cc2)CCCCC3)cc1 | inactive | – |
| O=C(NCc1ccccn1)c1nn(-c2ccccc2Cl)nc1CO | inactive | – |
| Cc1ccc([C@@H]2C3COCC=C3C(C#N)=C(N)C2(C#N)C#N)o1 (stereo not given in full) | inactive | – |
| CCOC(=O)c1cnc(-n2nc(C)cc2C)nc1N(C)C | active: 2 µM | – |
| Cc1ccccc1CN1C(=O)C(O)(CC(=O)c2cccc(Br)c2)c2ccccc21 (stereo not given) | inconclusive: 25.1 µM [cytotoxic, single point] | – |

| Structure (SMILES) | Potency | activity change, negative = cell killing |
| --- | --- | --- |
| CCOc1ccc(-c2nnc(SCC(=O)NCCc3ccccc3)nc2-c2ccc(OCC)c(OC)c2)cc1OC | inconclusive: 15.8 µM [cytotoxic, single point] | – |
| COc1ccc(Nc2cc(C(=O)NCCCN(C)C3CCCCC3)c3ccccc3n2)cc1 | active: 12.6 µM | – |
| O=C(Cc1ccc(F)cc1)NCCc1csc(-c2ccc(C(F)(F)F)cc2)n1 | active: 20 µM | – |
| Cc1ccc(-n2c(C)cc(C3N=C(N)Nc4nc5ccccc5n43)c2C)c(C)c1 (stereo not given) | active: 20 µM | – |
| CCCCSc1nnc(-c2ccccc2N)c(=O)[nH]1 | inactive | – |
| Cc1ccc(NC(CNS(=O)(=O)c2ccc(Cl)cc2)c2ccccc2)cc1 (stereo not given) | inconclusive: 31.6 µM [cytotoxic, single point] | – |
| O=c1oc2ccc3ccccc3c2cc1-c1nnc(Nc2cccc(F)c2)s1 | inactive | – |
| Cc1cc(C(=O)COC(=O)c2ccc3c(c2)OCO3)c(C)n1Cc1cccs1 | inconclusive: 15.8 µM [cytotoxic, single point] | – |
| Cc1ccc(-n2c(=O)c3ccc(C(=O)NCc4ccccc4Cl)cc3n(CC(N)=O)c2=O)cc1 | inconclusive: 7.94 µM [cytotoxic, partial curve] | – |
| O=c1cc(-c2ccccc2)[nH]c2ccccc12 | inconclusive: 25.1 µM [cytotoxic, single point] | – |
| Cc1cccc(OCCCCn2c(C3CC(=O)N(c4ccc(C)cc4C)C3)nc3ccccc32)c1 (stereo not given) | active: 25.1 µM | – |
| O=C(c1ccco1)N1CCN(c2ncnc3c2cnn3-c2ccccc2)CC1 | inactive | – |
| Cc1ccc(CCNC(=O)c2ccc(Cn3c(=O)c4cccn4c4cccnc43)cc2)cc1 | inconclusive: 25.1 µM [cytotoxic, single point] | – |
| Cc1cc(C)cc(NC(=O)c2cc(S(=O)(=O)N3CCOCC3)cn2C)c1 | inconclusive: 31.6 µM [cytotoxic, single point] | – |
| CN(C)c1ccc(NC(=O)/C=C/c2ccccc2Cl)cc1 | inconclusive: 31.6 µM [cytotoxic, single point] | – |
| CC(=O)c1ccc(NC(=O)/C=C/c2ccc(C)o2)cc1 | active: 10 µM | – |
| COc1cccc(C(=O)Nc2ccc(-c3nc4ccc(C)cc4s3)cc2)c1OC | inconclusive: 31.6 µM [cytotoxic, partial curve, poor fit] | – |
| CC(C)OCCCn1c(=O)c2ccccc2n2c(-c3ccc(F)c(F)c3)nnc12 | inconclusive: 20 µM [cytotoxic, partial curve] | – |
| Cc1nc2ncnn2c(N2CCN(C(c3ccccc3)c3ccccc3)CC2)c1C | active: 20 µM | – |
| Cc1cccc(NC(=O)CN2C(=O)COc3ccc(S(=O)(=O)Nc4ccccc4)cc32)c1C | inactive | – |
| Cc1nc2ccc(S(=O)(=O)N(CC(=O)Nc3cccc(C)c3C)Cc3ccccc3)cc2s1 | – | inconclusive: -31.1% [cytotoxic] |
| O=C(Nc1cccc(-c2nc3cc(Cl)ccc3o2)c1)c1ccc(F)cc1 | inconclusive: 12.6 µM [cytotoxic, single point] | – |
